# Results as given in the supplement of paper PMC11417369.
# ± gives the standard deviation of the averaged measurements. The list shows a part of the results.
# Test system: PfAP2-EXP AP2 domain (GST-tagged)
# Experiment: gcPBM binding intensity (ln(normalized median fluorescence intensity)); higher = stronger DNA binding
# Method in brief: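 The highest Masliner-normalised natural-log median intensity across replicate spots of either probe orientation is reported as binding intensity. GST-tagged P. falciparum DNA-binding domains expressed in E. coli were applied for 1 h to an Agilent 4 × 180k array of primer-extended double-stranded 36-bp intergenic genomic probes plus negative controls, and bound protein was detected with Alexa488 anti-GST antibody and scanned at 488 nm.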
row,Sequence,gcPBM binding intensity (ln)
1,AAGAAAAAAAAAATTACACACTGCGCACATACACAA [CACACA_site6721],8.725 ± 0.064
2,TATATATATATATATACACACATATATACCTATATA [CACACA_site6085],10 ± 0.48
3,AAAAAAAAGTTAAGCACACACATGAATAAATAATAC [CACACA_site840],8.99 ± 0.45
4,CCTAGAAAAGTATATACACACGCGCAAAATAAAATT [CACACA_site1413],9.41 ± 0.79
5,TTAACCGGTTTATGGGTGCACATTCTTCTTAAATAA [GTGCAC_site9928],8.96 ± 0.19
6,TATAAATAAAGATATACACACATATAAATATTTTTC [CACACA_site7798],8.29 ± 0.43
7,TTGGTCTTTTAAAAAAGTACAAAAAAAAAAAAAAAA [XGTACX_site1665],8.35 ± 0.16
8,AAAAAAGAACGCATAGTGCATATCTAAAAGATTTTT,8.27 ± 0.3
9,GATAAATTAAGACACACACACATATATTTATTTATA [CACACA_site7789],8.61 ± 0.39
10,TAGTATTAGATATATACACACATATATACCTATAGA [CACACA_site7083],8.3 ± 0.49
11,ATTTTTTTTTTTATAGTGGATCCACATTTGCCATTT [CACACA_negctrl_site1106],8.82 ± 0.57
12,TTACGATCATCAATATGTACATATATATATATATAT [XGTACX_site4301],10.2 ± 0.3
13,AATATTTATATTTACACACACATAATACATCTATGT [CACACA_site4187],8.54 ± 0.33
14,TATAAAAAAATATTATAATATATATATATATATATA [XGTACX_negctrl_site41],10.1 ± 0.26
15,TTTTAAATATGAACATGTACATGTAAATTTACATGT [XGTACX_site4573],8.73 ± 0.31
16,TTTATAAAAATGAACACACACATATAAATATAAATA [CACACA_site7607],8.65 ± 0.44
17,AAAAATAGAATAAATACACACCCGTGTAACGGATTT [CACACA_site3372],8.12 ± 0.47
18,AATAATATATTTAGGGGTACATAATAATATATTTTA [XGTACX_site8366],8.81 ± 0.6
19,TTATTATTAAAAAAAAGTACAGAATTGAATAATACA [XGTACX_site651],8.68 ± 0.38
20,TTTTAATTTATTAATTGTACATGTATTTTAAGATTA [XGTACX_site8417],8.41 ± 0.45
21,ATTTTTGTGTATTAATGTACTTTATGCATATTTGAC [XGTACX_site3353],9.1 ± 0.38
22,TAAACATTTGGCTGATGTACTTGCTACCTTAAATCA [XGTACX_site5514],8.27 ± 0.3

row,Sequence,gcPBM binding intensity (ln)
1,TATTTTTATAAGTAAAAGGAGCACAGTTAAAGGATC [XGTACX_negctrl_site362],9.03 ± 0.44
2,AATATTTTTGTCGTTAGTACATAAAAAATAATAATA [XGTACX_site3074],8.35 ± 0.23
3,AATAATAAAGTGAACACACACATATAATATATATAT [CACACA_site4143],9.29 ± 0.19
4,ATAATTAAAATGCTCACACACATAAAAAAAAATTAA [CACACA_site2149],8.4 ± 0.4
5,CAAACAAACGAACACACACACACACGCAAAAATGAT [CACACA_site7194],8.88 ± 0.5
6,ATGCTTTTATGCACACGTACAAAAATATTATATAAT [XGTACX_site5589],8.77 ± 0.042
7,ATAATTTTATCATATATATATATATATAAATACTTA [CACACA_negctrl_site743],8.37 ± 0.28
8,AAAAATTGAATTTTTTTTTTTTTTTTGAGAAGGAAA [CACACA_negctrl_site1196],8.39 ± 0.74
9,TTATGTAGCTAGCTATAAACTTTTTTTTATTTAAAA [CACACA_negctrl_site1297],8.2 ± 0.46
10,TATATAGATATGATAGTGCATTTTTAGAAAACATAA [GTGCAC_site9962],8.56 ± 0.092
11,AACAGATAAAAGGGTACACACATATATACAAGTACA [CACACA_site7959],8.71 ± 0.54
12,ATTATTATTAAATACACACACATACCTCCATGTTAG [CACACA_site3430],8.48 ± 0.37
13,ATATATATATATATATGTACATACTATACAATAATT [XGTACX_site3546],10.4 ± 0.29
14,TTTTTTTTAAAACTATGTACGTAAAAATTGTAGTTT [XGTACX_site2302],8.71 ± 0.099
15,TTTATATGTATTAATTGTACACATATAATGTGTTTT [XGTACX_site3064],8.52 ± 0.33
16,ATATGTATGTATAATCGTACAAAATTTGGCGATCTT [XGTACX_site8698],8.38 ± 0.33
17,AAATAAAGGAAATAAAAAGAAACCAATTTCGAATAT [CACACA_negctrl_site953],8.77 ± 0.51
18,GATATAATTATGTGTACACAATTTTTTTTTTTTTTT [CACACA_site4501],8.69 ± 0.13
19,ATATAGTAAATTGGTAGTACATAAAATGATTTTATG [XGTACX_site4143],8.59 ± 0.33
20,AGAACTTTTAATGGATGTACAGTTATTTTATTATTT [XGTACX_site6226],8.53 ± 0.36
21,AAAAAAAAAACATACACACATACATACATATATATT [CACACA_site949],8.37 ± 0.41
22,ATGAAGAATTTATATTGTACCCATTTTTATGTAAAT [XGTACX_site2528],8.59 ± 0.4

row,Sequence,gcPBM binding intensity (ln)
1,CGAAAAAGTGATATAGTGCAAAATTTTCATTTCTCT,8.61 ± 0.33
2,TTTTTTTTTCTTCTTTTCAAATTTAAGAAATTATAA [CACACA_negctrl_site18],8.29 ± 0.44
3,TGCTGTATATTTTTCTGTACACATTTATATATTCCA [XGTACX_site6244],8.76 ± 0.53
4,TTGTTATTATATTACGCATGCATCATTTATTTGCAC [TGCATGCA_site525],9.3 ± 0.12
5,AAAGGGAATTATGGCTGTACGCATTTTATAAATAGC [XGTACX_site5878],8.62 ± 0.47
6,AAGAATAAGAAGAAGGATCCCCTTCAAAAAAAAAAA [TGCATGCA_negctrl_site525],8.32 ± 0.61
7,TGATAAGAAAAAGACTTTTCCTTCTTACTTTCTATG [CACACA_negctrl_site782],8.26 ± 0.28
8,CAAAATAAATAATTTGGTACACATAAAAAAAAAAAA [XGTACX_site8380],8.58 ± 0.38
9,AATAATGTTTTTATATCACACACAAATATTAAATGA [CACACA_site8074],8.27 ± 0.31
10,AAAATTGGTGAAAATGAAAATATGATTATATGTATA [XGTACX_negctrl_site505],8.53 ± 0.51
11,CCATAAAACTATAATACACACATATAGATTAACATA [CACACA_site7849],8.51 ± 0.59
12,AAGTAAAAAAAAAAAAGTACATGTTTATATAAATAT [XGTACX_site4741],8.59 ± 0.33
13,ATATATTAAAAGGATTAGGAAAAAATATGATTTATC [TGCATGCA_negctrl_site405],8.4 ± 0.34
14,ATAGAATCTGGTAGCTGTACGAGTCGTAGAGTGTAG [XGTACX_site2016],9.06 ± 0.45
15,ATACATATATATAATACACACATAAATGTAACATTT [CACACA_site3518],8.59 ± 0.36
16,ATAAATTAACATTAAAGTACATTTTAATAAATATTA [XGTACX_site3647],8.04 ± 0.38
17,ATCCCCATAAAAAATACACACAAATATTTATACATA [CACACA_site1001],8.85 ± 0.64
18,TATTTTATAAATTAATGTACATAAATTATATCTACT [XGTACX_site3625],8.35 ± 0.16
19,ATTACGATAGAGAAATGTACATATATATATGTAAGT [XGTACX_site1200],8.73 ± 0.43
20,TATATATATAAGATTGTGCACATTAAAATGATAGAA [GTGCAC_site9621],9.265 ± 0.049
21,GATCAAAATTATAGAAGTACTTTATATAAATAAAAT [XGTACX_site8161],8.46 ± 0.39
22,TCTATAAAATATAAAAGTACGTATCAATAATTAAAA [XGTACX_site8469],8.55 ± 0.42

row,Sequence,gcPBM binding intensity (ln)
1,TCATAAATACATTTTGCATGTAAAATATAGAATACA [TGCATGCA_site755],8.71 ± 0.45
2,TGTGTATACTTGTGTATACCAAATTAAAGACGCTTT [CACACA_negctrl_site1359],8.54 ± 0.36
3,AAAAAATAAAAAAGGTGGTCATGTCACAAATACTTT [XGTACX_site7454],8.64 ± 0.47
4,TAAAAGTGATATGTTCGTACGTATTTATATGTAATA [XGTACX_site211],8.44 ± 0.43
5,TCTCCATCTTATGAGACATGCACTTTTTATTTAATA [TGCATGCA_site121],8.79 ± 0.2
6,GTATATATATATATATATATATATATATATATATAT [CACACA_negctrl_site609],9.98 ± 0.46
7,ATGATATGCAATTTAGTGCATAACAAAATTGGTATA,8.55 ± 0.042
8,AAAAAAAAAAAAAAAACACACATACCCATATATTTT [CACACA_site6013],8.56 ± 0.29
9,TTGTGTAAATGTTAAGTGCATTTGGTAAAATATAAA [GTGCAC_site9699],8.64 ± 0.2
10,TTTTTCTTTTTTTGGGGTACAGGGAAATCTATATTT [XGTACX_site7025],9.14 ± 0.57
11,TCTTAATTTTTGAAGGTACACACTAATATATTAAAT [CACACA_site1191],8.62 ± 0.42
12,CCATAAAAAGGTACATGTACAAAAAGCAAAAATATG [XGTACX_site5543],9.14 ± 0.45
13,ATATTTTTCCAACATCGTACATTATGAGTCAAAATT [XGTACX_site993],8.71 ± 0.38
14,CCCATATTATAGGTGTGTACATAAAAGTATATATAA [XGTACX_site3629],8.94 ± 0.54
15,AGAAGAAATATGTAAAAAATTTTATATTCACACACA [GTGCAC_negctrl_site441],8.58 ± 0.37
16,TTTCTTATCAACCTTTTTTTTTTTTTTTTATTCTTA [TGCATGCA_negctrl_site162],8.41 ± 0.47
17,CAATTAAAGATATGAACACACATGTGAACTTTCTAT [CACACA_site7796],8.5 ± 0.49
18,AATTTAATTTTTTCGTGTACTTATATAGGAGGTTTT [XGTACX_site8310],8.77 ± 0.47
19,TGTAGACATTAATGTAGTACAATATATATATATATT [XGTACX_site8608],8.68 ± 0.31
20,TGTTCTTATACTAATAGTACTTTTAGGTACTATAAA [XGTACX_site2954],8.22 ± 0.28
21,TTTATATATAATGTTGCATGTCAAATTTGTATATGG [TGCATGCA_site246],9.12 ± 0.3
22,TGTAGAAATGGGTGCACACACATATATAATATATAT [CACACA_site2507],9.34 ± 0.59
